Results published in patent US11572398B2, “GLP-1 derivatives and uses thereof” (Novo Nordisk A/S, priority 2014, dated 2023).
At least one compound was matched to its structure with a doubt left.

Tested on: lean Sprague Dawley male rats
Assay: Pharmacodynamic study in rats: acute effect on food intake and body weight
Type: in vivo
Details: single s.c. dose 50 nmol/kg, change versus baseline

CC[C@H](C)[C@H](NC(=O)[C@H](Cc1ccccc1)NC(=O)[C@H](CCC(=O)O)NC(=O)[C@H](CCCNC(=N)N)NC(=O)[C@H](C)NC(=O)[C@H](C)NC(=O)[C@H](CCC(N)=O)NC(=O)[C@H](CCC(=O)O)NC(=O)[C@H](CCC(=O)O)NC(=O)[C@H](CC(C)C)NC(=O)[C@H](Cc1ccc(O)cc1)NC(=O)[C@H](CO)NC(=O)[C@H](CO)NC(=O)[C@@H](NC(=O)[C@H](CC(=O)O)NC(=O)[C@H](CO)NC(=O)[C@@H](NC(=O)[C@H](Cc1ccccc1)NC(=O)[C@@H](NC(=O)CNC(=O)[C@H](CCC(=O)O)NC(=O)C(C)(C)NC(=O)[C@@H](N)Cc1c[nH]cn1)[C@@H](C)O)[C@@H](C)O)C(C)C)C(=O)N[C@@H](C)C(=O)N[C@@H](Cc1c[nH]c2ccccc12)C(=O)N[C@@H](CC(C)C)C(=O)N[C@H](C(=O)N[C@@H](CCCNC(=N)N)C(=O)NCC(=O)N[C@@H](CCCNC(=N)N)C(=O)N[C@@H](CCCCNC(=O)COCCOCCNC(=O)COCCOCCNC(=O)COCCOCCNC(=O)COCCOCCNC(=O)CN(CCCNC(=O)CC[C@H](NC(=O)[C@H]1CC[C@H](CNC(=O)CCCCCCCCCCCCCCCCCCC(=O)O)CC1)C(=O)O)CCCNC(=O)CC[C@H](NC(=O)[C@H]1CC[C@H](CNC(=O)CCCCCCCCCCCCCCCCCCC(=O)O)CC1)C(=O)O)C(=O)O)C(C)C [Example 27, N{Epsilon-37}-[2-[2-[2-[[2-[2-[2-[[2-[2-[2-[[2-[2-[2-[[2-[bis[3-[[(4S)-4-carboxy-4-[[4-[(19-carboxynonadecanoylamino)methyl]cyclohexanecarbonyl]amino]butanoyl]amino]propyl]amino]acetyl]amino]ethoxy]ethoxy]acetyl]amino]ethoxy]ethoxy]acetyl]amino]ethoxy]ethoxy]acetyl]amino]ethoxy]ethoxy]acetyl]-[Aib8,Glu22,Arg26,Arg34,Lys37]-GLP-1-(7-37)-peptide]
% change in body weight 48 h: −1% | % change in food intake 48 h: −21%
